18 molecules from the supplement of paper PMC4604168 (melanoma cell lines) can be followed below.

The list shows a part of the results. Repeats are few or missing, and single values can be far off.
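Also: cells treated in 1,536-well plates, then fixed and DAPI-stained, with nuclei counted from automated high-throughput microscope images.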

The experiment deals with COLO829. As to the kind of experiment: cell count relative to DMSO control; melanoma cells; higher = more viable cells. Particulars: library dose: standard library concentration; 72 h; first compound 2 µM.
Take `C[C@@H](N)c1ccc(C(=O)Nc2ccnc3[nH]ccc23)cc1` + CN1CCN(c2ccc3nc(-c4c(N)c5c(F)cccc5[nH]c4=O)[nH]c3c2)CC1 [Dovitinib] (partner dose 0.5 µM): the cell count worked out at 52.1%. As to `C[C@@H](N)c1ccc(C(=O)Nc2ccnc3[nH]ccc23)cc1` + CS(=O)(=O)CCNCc1ccc(-c2ccc3ncnc(Nc4ccc(OCc5cccc(F)c5)c(Cl)c4)c3c2)o1 [lapatinib] (partner dose 4 µM), the cell count was found to be 98.2%. `C[C@@H](N)c1ccc(C(=O)Nc2ccnc3[nH]ccc23)cc1` + COc1cc2c(Oc3ccc4[nH]c(C)cc4c3F)ncnc2cc1OCCCN1CCCC1 [cediranib] (partner dose 2 µM) yielded a cell count of 73.4%. The same measure for `CCCCCCCCCCCCCCCCCCOP(=O)([O-])OC1CC[N+](C)(C)CC1` [Perifosine] + C[C@@H]1CCN(C(=O)CC#N)C[C@@H]1N(C)c1ncnc2[nH]ccc12 [CP690550] (partner dose 5 µM): 104%; for `C[C@@H](N)c1ccc(C(=O)Nc2ccnc3[nH]ccc23)cc1` + C#Cc1cccc(Nc2ncnc3cc(OCCOC)c(OCCOC)cc23)c1 [erlotinib] (partner dose 4 µM): 83.1%. Turning to `CCCCCCCCCCCCCCCCCCOP(=O)([O-])OC1CC[N+](C)(C)CC1` [Perifosine] + CO[C@H]1C[C@@H]2CC[C@@H](C)[C@@](O)(O2)C(=O)C(=O)N2CCCC[C@H]2C(=O)O[C@H]([C@H](C)C[C@@H]2CC[C@@H](OCCO)[C@H](OC)C2)CC(=O)[C@H](C)/C=C(\C)[C@@H](O)[C@@H](OC)C(=O)[C@H](C)C[C@H](C)/C=C/C=C/C=C/1C [everolimus] (partner dose 0.1 µM), the cell count is 74.6%. As for `C[C@@H](N)c1ccc(C(=O)Nc2ccnc3[nH]ccc23)cc1` + COc1ccc(Cl)c(Nc2nc3ccccc3nc2NS(=O)(=O)c2cccc(NC(=O)C(C)(C)N)c2)c1 [XL147] (partner dose 4 µM), the figure is 71%.

The molecule `CCCCCCCCCCCCCCCCCCOP(=O)([O-])OC1CC[N+](C)(C)CC1` [Perifosine] + C=CCn1c(=O)c2cnc(Nc3ccc(N4CCN(C)CC4)cc3)nc2n1-c1cccc(C(C)(C)O)n1 [MK1775] (partner dose 0.1 µM) returned a cell count of 90.1%. On to `CCCCCCCCCCCCCCCCCCOP(=O)([O-])OC1CC[N+](C)(C)CC1` [Perifosine] + CN1CCN(c2ccc3nc(-c4c(N)c5c(F)cccc5[nH]c4=O)[nH]c3c2)CC1 [Dovitinib] (partner dose 0.5 µM), for which the cell count stood at 54.7%.

Consider `Cn1sc(=O)n(Cc2ccccc2)c1=O` + CN(NC(=O)CC(=O)NN(C)C(=S)c1ccccc1)C(=S)c1ccccc1 [STA4783] (partner dose 0.03 µM), for which the cell count amounted to 59.1%. Turning to `Cn1sc(=O)n(Cc2ccccc2)c1=O` + CO[C@@H]1[C@H](N(C)C(=O)c2ccccc2)C[C@H]2O[C@]1(C)n1c3ccccc3c3c4c(c5c6ccccc6n2c5c31)C(=O)NC4 [Midostaurin] (partner dose 0.4 µM), the cell count turned out to be 79.3%. `Cn1sc(=O)n(Cc2ccccc2)c1=O` + C[C@]1(O)C[C@@H](c2nc(-c3ccc4ccc(-c5ccccc5)nc4c3)c3c(N)nccn32)C1 [OSI906] (partner dose 2 µM): the cell count stood at 77.6%. For the molecule `Cn1sc(=O)n(Cc2ccccc2)c1=O` + C#Cc1cccc(Nc2ncnc3cc(OCCOC)c(OCCOC)cc23)c1 [erlotinib] (partner dose 4 µM), the cell count worked out at 94%. Turning to `C[C@@H](N)c1ccc(C(=O)Nc2ccnc3[nH]ccc23)cc1` + NC(=O)Nc1cc(-c2cccc(F)c2)sc1C(=O)N[C@H]1CCCNC1 [AZD7762] (partner dose 0.1 µM), the cell count worked out at 80.8%. Consider `Cn1sc(=O)n(Cc2ccccc2)c1=O` + Nc1cccc2c1CN(C1CCC(=O)NC1=O)C2=O [lenalidomide] (partner dose 5 µM), for which the cell count was determined as 76.6%. For the molecule `Cn1sc(=O)n(Cc2ccccc2)c1=O` + Cc1cc(N2CCOCC2)cc2[nH]c(-c3c(NC[C@@H](O)c4cccc(Cl)c4)cc[nH]c3=O)nc12 [BMS536924] (partner dose 1 µM), the cell count was 87.7%.

As to `C[C@@H](N)c1ccc(C(=O)Nc2ccnc3[nH]ccc23)cc1` + Cn1sc(=O)n(Cc2ccccc2)c1=O [TDZD-8] (partner dose 2 µM), the cell count stood at 88.4%. Consider `CCCCCCCCCCCCCCCCCCOP(=O)([O-])OC1CC[N+](C)(C)CC1` [Perifosine] + C[C@@H](N)c1ccc(C(=O)Nc2ccnc3[nH]ccc23)cc1 [RKI983] (partner dose 2 µM), for which the cell count came out at 91.4%.
